Source: patent US20120077731A1 (Ablynx, published 2012)

Molecular target: T1, Cyno plasma sIL-6R (cynomolgus monkey, UniProt A0A2K5WN54 60-396)
T1 construct: also called cynomolgus sIL-6R
T1 sequence: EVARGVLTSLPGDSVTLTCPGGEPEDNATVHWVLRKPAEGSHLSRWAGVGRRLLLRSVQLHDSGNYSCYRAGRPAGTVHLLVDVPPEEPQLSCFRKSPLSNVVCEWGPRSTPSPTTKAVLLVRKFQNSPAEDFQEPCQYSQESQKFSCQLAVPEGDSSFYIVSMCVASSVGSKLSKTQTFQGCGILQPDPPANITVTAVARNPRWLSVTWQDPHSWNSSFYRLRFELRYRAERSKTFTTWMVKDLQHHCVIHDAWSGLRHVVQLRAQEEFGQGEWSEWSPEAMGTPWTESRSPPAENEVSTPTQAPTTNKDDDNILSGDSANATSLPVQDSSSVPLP
Assay: plasma potency ELISA, titration of human IL-6 in cyno plasma

EC50: 0.0501 µg/mL
B1: Human IL-6 (ligand)
chain: not shown
notes: also called hIL-6; bio-IL-6
